Laboratory results from the antibiotic and cytotoxicity screens of Wong et al. (2023).
The list shows a part of the results.

Experiments:
HSkMC = human skeletal muscle cells; assay: cytotoxicity call (relative viability < 0.9); details: 10 µM
HepG2 = assay: cytotoxicity call (relative viability < 0.9); details: 10 µM
S. aureus RN4220 = assay: growth inhibition call (relative growth <= 0.2); details: 50 µM

C[C@H]1CN([C@@H](C)CO)C(=O)Cc2cc(NC(=O)C3CC3)ccc2O[C@@H]1CN(C)C(=O)Nc1ccc(F)cc1
inactive: cytotoxicity call (HSkMC) | cytotoxicity call (HepG2) | growth inhibition call (S. aureus RN4220)

COc1ccc(S(=O)(=O)N(C)C[C@H]2OCc3cnnn3CCCC(=O)N([C@H](C)CO)C[C@H]2C)cc1
inactive: cytotoxicity call (HSkMC) | cytotoxicity call (HepG2) | growth inhibition call (S. aureus RN4220)

COc1ccc2c3c([nH]c2c1)[C@H](CO)N(C[C@]13CN(CC2CCCCC2)C1)S(=O)(=O)c1cn(cn1)C
inactive: cytotoxicity call (HSkMC) | cytotoxicity call (HepG2) | growth inhibition call (S. aureus RN4220)

C[C@H](CO)N1C[C@H](C)[C@@H](CN(C)Cc2ccccc2)OCCCC[C@H](C)Oc2ccc(NS(=O)(=O)c3ccc(Cl)cc3)cc2C1=O
inactive: cytotoxicity call (HSkMC) | cytotoxicity call (HepG2) | growth inhibition call (S. aureus RN4220)

O=C(C[C@@H]1C=C[C@H](NC(=O)CN2CCOCC2)[C@@H](CO)O1)NCCc1ccncc1
inactive: cytotoxicity call (HSkMC) | cytotoxicity call (HepG2) | growth inhibition call (S. aureus RN4220)

C[C@@H]1CN([C@@H](C)CO)C(=O)c2cccc(NC(=O)C3CCOCC3)c2O[C@H]1CN(C)Cc1ccc(Oc2ccccc2)cc1
inactive: cytotoxicity call (HSkMC) | cytotoxicity call (HepG2) | growth inhibition call (S. aureus RN4220)

COc1ccc2c3c(n(c2c1)C)[C@@H](CO)N(C[C@]13CN(Cc2ccncc2)C1)C(=O)CN1CCOCC1
inactive: cytotoxicity call (HSkMC) | cytotoxicity call (HepG2) | growth inhibition call (S. aureus RN4220)

Cc1ccc(S(=O)(=O)Nc2cccc3c2O[C@@H](CN(C)CC2CC2)[C@@H](C)CN([C@H](C)CO)C3=O)cc1
inactive: cytotoxicity call (HSkMC) | cytotoxicity call (HepG2) | growth inhibition call (S. aureus RN4220)

COc1ccc(NC(=O)Nc2ccc3c(c2)C(=O)N([C@H](C)CO)C[C@@H](C)[C@H](CN(C)S(=O)(=O)c2ccc(F)cc2)OCCCC[C@@H](C)O3)cc1
inactive: cytotoxicity call (HSkMC) | cytotoxicity call (HepG2) | growth inhibition call (S. aureus RN4220)

C[C@H]1CN([C@@H](C)CO)C(=O)c2cc(NC(=O)Nc3ccc(C(F)(F)F)cc3)ccc2O[C@H]1CN(C)C(=O)Nc1cccc2ccccc12
inactive: cytotoxicity call (HSkMC) | cytotoxicity call (HepG2) | growth inhibition call (S. aureus RN4220)

COc1cc(OC)c(NC(=O)Cn2c(=O)n(-c3ccc(CC(=O)NC[C@H]4CCCO4)cc3)c(=O)c3ccccc32)cc1Cl
inactive: cytotoxicity call (HSkMC) | cytotoxicity call (HepG2) | growth inhibition call (S. aureus RN4220)

Cc1noc(C)c1NC(=O)Nc1cccc2c1O[C@@H](CN(C)S(=O)(=O)c1ccccc1)[C@H](C)CN([C@@H](C)CO)C2=O
inactive: cytotoxicity call (HSkMC) | cytotoxicity call (HepG2) | growth inhibition call (S. aureus RN4220)

C[C@H]1CN([C@@H](C)CO)C(=O)c2cc(NC(=O)c3ccncc3)ccc2O[C@H]1CN(C)Cc1ccc(Oc2ccccc2)cc1
inactive: cytotoxicity call (HSkMC) | cytotoxicity call (HepG2) | growth inhibition call (S. aureus RN4220)

COc1ccccc1C#Cc1cnc2c(c1)C(=O)N([C@@H](C)CO)C[C@H](C)[C@H](CN(C)S(=O)(=O)c1cn(C)cn1)O2
inactive: cytotoxicity call (HSkMC) | cytotoxicity call (HepG2) | growth inhibition call (S. aureus RN4220)

C[C@@H]1CCCCO[C@@H](CN(C)S(=O)(=O)c2cn(C)cn2)[C@H](C)CN([C@@H](C)CO)C(=O)c2cc(NC(=O)Nc3cccc4ccccc34)ccc2O1
inactive: cytotoxicity call (HSkMC) | cytotoxicity call (HepG2) | growth inhibition call (S. aureus RN4220)

Cc1noc(C)c1S(=O)(=O)Nc1ccc2c(c1)C(=O)N([C@@H](C)CO)C[C@@H](C)[C@H](CN(C)S(C)(=O)=O)O2
inactive: cytotoxicity call (HSkMC) | cytotoxicity call (HepG2) | growth inhibition call (S. aureus RN4220)

Cc1ccc(S(=O)(=O)Nc2ccc3c(c2)C(=O)N([C@H](C)CO)C[C@@H](C)[C@H](CN(C)C(=O)Nc2ccc4c(c2)OCO4)OCCCC[C@H](C)O3)cc1
inactive: cytotoxicity call (HSkMC) | cytotoxicity call (HepG2) | growth inhibition call (S. aureus RN4220)

C[C@@H]1CN([C@H](C)CO)C(=O)c2cc(NC(=O)C3CCCCC3)ccc2O[C@@H](C)CCCCO[C@@H]1CN(C)Cc1ccc(C(F)(F)F)cc1
inactive: cytotoxicity call (HSkMC) | cytotoxicity call (HepG2) | growth inhibition call (S. aureus RN4220)

C[C@@H]1CN([C@H](C)CO)C(=O)c2cc(NS(=O)(=O)c3cn(C)cn3)ccc2O[C@@H](C)CCCCO[C@@H]1CN(C)CC1CC1
inactive: cytotoxicity call (HSkMC) | cytotoxicity call (HepG2) | growth inhibition call (S. aureus RN4220)

C[C@@H]1CCCCO[C@@H](CN(C)S(=O)(=O)c2ccccc2)[C@H](C)CN([C@H](C)CO)C(=O)c2cc(NC(=O)Nc3ccccc3)ccc2O1
inactive: cytotoxicity call (HSkMC) | cytotoxicity call (HepG2) | growth inhibition call (S. aureus RN4220)

Cc1noc(C)c1NC(=O)N(C)C[C@H]1OCCCC[C@H](C)Oc2ccc(NS(=O)(=O)c3ccc(F)cc3)cc2C(=O)N([C@@H](C)CO)C[C@@H]1C
inactive: cytotoxicity call (HSkMC) | cytotoxicity call (HepG2) | growth inhibition call (S. aureus RN4220)

COc1ccc(S(=O)(=O)N(C)C[C@@H]2Oc3ccc(NC(=O)C4CC4)cc3CC(=O)N([C@@H](C)CO)C[C@@H]2C)cc1
inactive: cytotoxicity call (HSkMC) | cytotoxicity call (HepG2) | growth inhibition call (S. aureus RN4220)

CNC(=O)N1CCN(Cc2cnn(C)c2)C[C@]2(CCCC(=O)N2)C1
inactive: cytotoxicity call (HSkMC) | cytotoxicity call (HepG2) | growth inhibition call (S. aureus RN4220)

C[C@H](CO)N1C[C@H](C)[C@@H](CN(C)C(=O)Nc2ccc(F)cc2)Oc2ccc(NC(=O)CCN3CCOCC3)cc2CC1=O
inactive: cytotoxicity call (HSkMC) | cytotoxicity call (HepG2) | growth inhibition call (S. aureus RN4220)
